# Source: the supplement of paper PMC8728848
# The other results are listed elsewhere or left out.
# B1: Gal 2 (Homo sapiens), P05162 (protein)
# chain: MTGELEVKNMDMKPGSTLKITGSIADGTDGFVINLGQGTDKLNLHFNPRFSESTIVCNSLDGSNWGQEQREDHLCFSPGSEVKFTVTFESDKFKVKLPDGHELTFPNRLGHSHLSYLSVRGGFNMSSFKLKE
# Key:
# Assay in all cases: glycan array binding signal (z-score within array); higher = stronger binding
# Details in all cases: glycan notation: IUPAC condensed, linker removed
# [1] = biological target: GlcNAc(b1-3)Gal(b1-4)GlcNAc(b1-6)[Gal(b1-3)]GalNAc
# In short: (§1)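 The binding signal is a Z-score computed within each array and averaged over linkers. Arrays of the same protein sequence at different concentrations or buffers were also averaged together. Data originate from 3228 arrays in the Consortium for Functional Glycomics database, kept only where the protein sequence was available.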
# [2] = biological target: GlcNAc(b1-3)Gal(b1-4)GlcNAc(b1-6)[GlcNAc(b1-3)Gal(b1-3)]GalNAc
# In short: as §1
# [3] = biological target: GlcNAc(b1-3)Gal(b1-4)GlcNAc(b1-6)[GlcNAc(b1-3)]Gal(b1-4)GlcNAc
# In short: as §1
# GlcNAc(b1-3)GalNAc = biological target: GlcNAc(b1-3)GalNAc
# In short: as §1
# GlcNAc(b1-3)Man = biological target: GlcNAc(b1-3)Man
# In short: as §1
# [4] = biological target: GlcNAc(b1-3)[GlcNAc(b1-4)][GlcNAc(b1-6)]GlcNAc
# In short: as §1
# [5] = biological target: GlcNAc(b1-3)[GlcNAc(b1-6)]Gal(b1-4)GlcNAc
# In short: as §1
# [6] = biological target: GlcNAc(b1-3)[GlcNAc(b1-6)]GalNAc
# In short: as §1
# [7] = biological target: GlcNAc(b1-3)[GlcNAc(b1-6)]GlcNAc
# In short: as §1
# [8] = biological target: GlcNAc(b1-3)[GlcNAc(b1-6)]GlcNAc(b1-4)GlcNAc
# In short: as §1
# [9] = biological target: GlcNAc(b1-4)Gal(b1-4)GlcNAc
# In short: as §1
# GlcNAc(b1-4)GlcNAc = biological target: GlcNAc(b1-4)GlcNAc
# In short: as §1
# [10] = biological target: GlcNAc(b1-4)GlcNAc(b1-4)GlcNAc
# In short: as §1
# [11] = biological target: GlcNAc(b1-4)GlcNAc(b1-4)GlcNAc(b1-4)GlcNAc(b1-4)GlcNAc
# In short: as §1
# [12] = biological target: GlcNAc(b1-4)GlcNAc(b1-4)GlcNAc(b1-4)GlcNAc(b1-4)GlcNAc(b1-4)GlcNAc
# In short: as §1
# [13] = biological target: GlcNAc(b1-4)[GlcNAc(b1-6)]GalNAc
# In short: as §1
# [14] = biological target: GlcNAc(b1-6)Gal(b1-4)GlcNAc
# In short: as §1
# GlcNAc(b1-6)GalNAc = biological target: GlcNAc(b1-6)GalNAc
# In short: as §1
# GlcNAc3Prop(b1-4)GlcNAc = biological target: GlcNAc3Prop(b1-4)GlcNAc
# In short: as §1
# [15] = biological target: GlcNAc6S(b1-3)Gal(b1-4)GlcNAc
# In short: as §1
# Kdn(a2-3)Gal(b1-3)GalNAc = biological target: Kdn(a2-3)Gal(b1-3)GalNAc
# In short: as §1
# Kdn(a2-3)Gal(b1-3)GlcNAc = biological target: Kdn(a2-3)Gal(b1-3)GlcNAc
# In short: as §1
# Kdn(a2-3)Gal(b1-4)Glc = biological target: Kdn(a2-3)Gal(b1-4)Glc
# In short: as §1
# Kdn(a2-3)Gal(b1-4)GlcNAc = biological target: Kdn(a2-3)Gal(b1-4)GlcNAc
# In short: as §1
# [16] = biological target: Kdn(a2-3)Gal(b1-4)[Fuc(a1-3)]GlcNAc
# In short: as §1
# Kdn(a2-6)Gal(b1-4)GlcNAc = biological target: Kdn(a2-6)Gal(b1-4)GlcNAc
# In short: as §1
# [17] = biological target: Man(a1-2)Man(a1-2)Man(a1-3)Man
# In short: as §1
# [18] = biological target: Man(a1-2)Man(a1-2)Man(a1-3)[Man(a1-2)Man(a1-3)[Man(a1-2)Man(a1-6)]Man(a1-6)]Man(b1-4)GlcNAc(b1-4)GlcNAc
# In short: as §1
# [19] = biological target: Man(a1-2)Man(a1-2)Man(a1-3)[Man(a1-2)Man(a1-6)[Man(a1-3)]Man(a1-6)]Man(b1-4)GlcNAc(b1-4)GlcNAc
# In short: as §1
# [20] = biological target: Man(a1-2)Man(a1-2)Man(a1-6)[Man(a1-3)]Man
# In short: as §1
# Man(a1-2)Man(a1-3)Man = biological target: Man(a1-2)Man(a1-3)Man
# In short: as §1
# [21] = biological target: Man(a1-2)Man(a1-3)[Man(a1-2)Man(a1-6)]Man
# In short: as §1
# [22] = biological target: Man(a1-2)Man(a1-3)[Man(a1-2)Man(a1-6)]Man(a1-6)[Man(a1-2)Man(a1-2)Man(a1-3)]Man
# In short: as §1
# [23] = biological target: Man(a1-2)Man(a1-3)[Man(a1-2)Man(a1-6)]Man(a1-6)[Man(a1-2)Man(a1-2)Man(a1-3)]Man(b1-4)GlcNAc(b1-4)GlcNAc
# In short: as §1
# [24] = biological target: Man(a1-2)Man(a1-3)[Man(a1-3)[Man(a1-6)]Man(a1-6)]Man(b1-4)GlcNAc(b1-4)GlcNAc
# In short: as §1
# [25] = biological target: Man(a1-2)Man(a1-3)[Man(a1-6)]Man(a1-6)[Man(a1-2)Man(a1-3)]Man(b1-4)GlcNAc(b1-4)GlcNAc
# In short: as §1
# [26] = biological target: Man(a1-2)Man(a1-6)[Man(a1-3)]Man(a1-6)[Man(a1-2)Man(a1-2)Man(a1-3)]Man
# In short: as §1
# [27] = biological target: Man(a1-2)Man(a1-6)[Man(a1-3)]Man(a1-6)[Man(a1-2)Man(a1-2)Man(a1-3)]Man(b1-4)GlcNAc(b1-4)GlcNAc
# In short: as §1
# Man(a1-3)[Man(a1-6)]Man = biological target: Man(a1-3)[Man(a1-6)]Man
# In short: as §1
# [28] = biological target: Man(a1-3)[Man(a1-6)]Man(a1-6)[Man(a1-2)Man(a1-3)]Man(b1-4)GlcNAc(b1-4)GlcNAc
# In short: as §1
# [29] = biological target: Man(a1-3)[Man(a1-6)]Man(a1-6)[Man(a1-3)]Man
# In short: as §1
# [30] = biological target: Man(a1-3)[Man(a1-6)]Man(a1-6)[Man(a1-3)]Man(b1-4)GlcNAc(b1-4)GlcNAc
# In short: as §1
# [31] = biological target: Man(a1-3)[Man(a1-6)]Man(b1-4)GlcNAc(b1-4)GlcNAc
# In short: as §1
# [32] = biological target: Man(a1-3)[Man(a1-6)]Man(b1-4)GlcNAc(b1-4)[Fuc(a1-6)]GlcNAc
# In short: as §1
# Man(a1-6)Man = biological target: Man(a1-6)Man
# In short: as §1
binder,measurement,setting,value
B1,glycan array binding signal (z-score),[1],-0.123
same,glycan array binding signal (z-score),[2],-0.224
same,glycan array binding signal (z-score),[3],-0.245
same,glycan array binding signal (z-score),GlcNAc(b1-3)GalNAc,-0.196
same,glycan array binding signal (z-score),GlcNAc(b1-3)Man,-0.231
same,glycan array binding signal (z-score),[4],-0.237
same,glycan array binding signal (z-score),[5],-0.247
same,glycan array binding signal (z-score),[6],-0.219
same,glycan array binding signal (z-score),[7],-0.429
same,glycan array binding signal (z-score),[8],-0.396
same,glycan array binding signal (z-score),[9],-0.216
same,glycan array binding signal (z-score),GlcNAc(b1-4)GlcNAc,-0.209
same,glycan array binding signal (z-score),[10],-0.267
same,glycan array binding signal (z-score),[11],-0.269
same,glycan array binding signal (z-score),[12],-0.269
same,glycan array binding signal (z-score),[13],-0.257
same,glycan array binding signal (z-score),[14],-0.272
same,glycan array binding signal (z-score),GlcNAc(b1-6)GalNAc,-0.254
same,glycan array binding signal (z-score),GlcNAc3Prop(b1-4)GlcNAc,-0.249
same,glycan array binding signal (z-score),[15],-0.202
same,glycan array binding signal (z-score),Kdn(a2-3)Gal(b1-3)GalNAc,-0.139
same,glycan array binding signal (z-score),Kdn(a2-3)Gal(b1-3)GlcNAc,-0.263
same,glycan array binding signal (z-score),Kdn(a2-3)Gal(b1-4)Glc,0.019
same,glycan array binding signal (z-score),Kdn(a2-3)Gal(b1-4)GlcNAc,-0.241
same,glycan array binding signal (z-score),[16],-0.182
same,glycan array binding signal (z-score),Kdn(a2-6)Gal(b1-4)GlcNAc,-0.158
same,glycan array binding signal (z-score),[17],-0.27
same,glycan array binding signal (z-score),[18],1.05
same,glycan array binding signal (z-score),[19],-0.402
same,glycan array binding signal (z-score),[20],-0.218
same,glycan array binding signal (z-score),Man(a1-2)Man(a1-3)Man,-0.282
same,glycan array binding signal (z-score),[21],-0.24
same,glycan array binding signal (z-score),[22],-0.224
same,glycan array binding signal (z-score),[23],-0.034
same,glycan array binding signal (z-score),[24],-0.028
same,glycan array binding signal (z-score),[25],-0.268
same,glycan array binding signal (z-score),[26],-0.211
same,glycan array binding signal (z-score),[27],-0.22
same,glycan array binding signal (z-score),Man(a1-3)[Man(a1-6)]Man,-0.234
same,glycan array binding signal (z-score),[28],0.076
same,glycan array binding signal (z-score),[29],-0.221
same,glycan array binding signal (z-score),[30],-0.263
same,glycan array binding signal (z-score),[31],-0.231
same,glycan array binding signal (z-score),[32],-0.147
same,glycan array binding signal (z-score),Man(a1-6)Man,-0.186
